The list shows a part of the results. The energies were worked out here from pooled read counts, against the library average; single values are noisy.
These sequences were tested against T1, Pho4 (S. cerevisiae) (UniProt P07270) (assay: relative binding free energy (BET-seq); higher = weaker binding). Settings: reference: library average.
T1 sequence: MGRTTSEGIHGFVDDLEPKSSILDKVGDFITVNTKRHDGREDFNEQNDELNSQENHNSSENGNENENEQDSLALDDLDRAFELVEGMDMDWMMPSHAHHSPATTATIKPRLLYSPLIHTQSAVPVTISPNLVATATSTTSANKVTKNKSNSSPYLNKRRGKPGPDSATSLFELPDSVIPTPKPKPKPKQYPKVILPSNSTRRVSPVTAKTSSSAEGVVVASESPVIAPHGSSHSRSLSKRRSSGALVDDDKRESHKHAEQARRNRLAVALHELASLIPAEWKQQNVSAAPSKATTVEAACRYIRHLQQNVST

Q: For AGTATCACGTGTGTTA, which “relative binding free energy” value is on record?
A: 0.16 kcal/mol

Q: Which “relative binding free energy” value does the source give for ACGGTCACGTGTTTTA here?
A: 0.04 kcal/mol

Q: For TGTGCCACGTGAGGTT, which “relative binding free energy” value is on record?
A: -0.03 kcal/mol

Q: How did the “relative binding free energy” value turn out when AAGGTCACGTGGGCAT was run?
A: -0.01 kcal/mol

Q: Which “relative binding free energy” value does the source give for ATTGGCACGTGGGTCA here?
A: -0.22 kcal/mol

Q: How did the “relative binding free energy” value turn out when TGGAGCACGTGGAGCT was run?
A: -0.1 kcal/mol

Q: With CAGTTCACGTGTTGCG as the sequence, how does the “relative binding free energy” value read?
A: 0.24 kcal/mol

Q: How did the “relative binding free energy” value turn out when TTAAACACGTGATGAG was run?
A: 0.18 kcal/mol

Q: Which “relative binding free energy” value does the source give for TTGAGCACGTGGAGAG here?
A: -0.04 kcal/mol

Q: Which “relative binding free energy” value does the source give for CGGGGCACGTGAGAGT here?
A: 0.21 kcal/mol

Q: With TAGTGCACGTGGTTTG as the sequence, how does the “relative binding free energy” value read?
A: -0.03 kcal/mol

Q: How did the “relative binding free energy” value turn out when GTATGCACGTGTTGTA was run?
A: -0.07 kcal/mol

Q: Which “relative binding free energy” value does the source give for AGGGGCACGTGGCCTT here?
A: -0.29 kcal/mol

Q: For ATGTACACGTGAGAGG, which “relative binding free energy” value is on record?
A: 0.3 kcal/mol

Q: For ATGTTCACGTGGCTGC, which “relative binding free energy” value is on record?
A: 0.19 kcal/mol

Q: With TTGTTCACGTGGTGTC as the sequence, how does the “relative binding free energy” value read?
A: 0.23 kcal/mol

Q: With AGGGCCACGTGTGGCG as the sequence, how does the “relative binding free energy” value read?
A: -0.03 kcal/mol

Q: With GGAAGCACGTGAGTGT as the sequence, how does the “relative binding free energy” value read?
A: -0.06 kcal/mol

Q: TACTTCACGTGAGAGT was tested. Which “relative binding free energy” value did it give?
A: 0.41 kcal/mol

Q: Which “relative binding free energy” value does the source give for TTCTTCACGTGTTACT here?
A: 0.26 kcal/mol

Q: With AGGAACACGTGAAGTG as the sequence, how does the “relative binding free energy” value read?
A: 0.25 kcal/mol

Q: For ATAGTCACGTGGGTGC, which “relative binding free energy” value is on record?
A: -0.15 kcal/mol

Q: With TGGATCACGTGTTAGT as the sequence, how does the “relative binding free energy” value read?
A: 0.17 kcal/mol

Q: Which “relative binding free energy” value does the source give for GAATGCACGTGGTCGT here?
A: -0.07 kcal/mol

Q: ATTTTCACGTGCTTAG was tested. Which “relative binding free energy” value did it give?
A: 0.27 kcal/mol

Q: Which “relative binding free energy” value does the source give for TGGCGCACGTGAGTGT here?
A: 0 kcal/mol

Q: Which “relative binding free energy” value does the source give for AAGTGCACGTGGTGGG here?
A: 0.03 kcal/mol

Q: With ATGCGCACGTGTGATT as the sequence, how does the “relative binding free energy” value read?
A: -0.04 kcal/mol

Q: How did the “relative binding free energy” value turn out when TATTTCACGTGCTAGA was run?
A: 0.28 kcal/mol

Q: With AGAAGCACGTGGAGTG as the sequence, how does the “relative binding free energy” value read?
A: -0.04 kcal/mol

Q: Which “relative binding free energy” value does the source give for ATCGTCACGTGAGGTG here?
A: 0.28 kcal/mol

Q: How did the “relative binding free energy” value turn out when GGGCTCACGTGAGGTT was run?
A: 0.43 kcal/mol

Q: For TGTCTCACGTGTCTGG, which “relative binding free energy” value is on record?
A: 0.12 kcal/mol

Q: With TGGTTCACGTGGAGCC as the sequence, how does the “relative binding free energy” value read?
A: 0.43 kcal/mol

Q: With ATGGGCACGTGTTAGC as the sequence, how does the “relative binding free energy” value read?
A: -0.11 kcal/mol

Q: For GGGGGCACGTGTGTCA, which “relative binding free energy” value is on record?
A: 0.02 kcal/mol

Q: GCTTGCACGTGTTTAG was tested. Which “relative binding free energy” value did it give?
A: 0.09 kcal/mol

Q: TGTGGCACGTGTAATG was tested. Which “relative binding free energy” value did it give?
A: 0 kcal/mol

Q: For ATCGGCACGTGGGTCT, which “relative binding free energy” value is on record?
A: -0.1 kcal/mol

Q: For TTGTCCACGTGGTCGG, which “relative binding free energy” value is on record?
A: -0.07 kcal/mol

Q: For ATTGGCACGTGAGTCA, which “relative binding free energy” value is on record?
A: 0.03 kcal/mol

Q: Which “relative binding free energy” value does the source give for GTTGGCACGTGCCTGT here?
A: -0.18 kcal/mol

Q: TGTGTCACGTGGGGGA was tested. Which “relative binding free energy” value did it give?
A: -0.06 kcal/mol

Q: Which “relative binding free energy” value does the source give for CTTTTCACGTGAAGTG here?
A: 0.33 kcal/mol

Q: Which “relative binding free energy” value does the source give for AATGGCACGTGGTTGG here?
A: -0.09 kcal/mol

Q: Which “relative binding free energy” value does the source give for GATTTCACGTGGCGGA here?
A: 0.3 kcal/mol

Q: With TTGTTCACGTGTACGG as the sequence, how does the “relative binding free energy” value read?
A: 0.26 kcal/mol

Q: For TAGAGCACGTGGGGGC, which “relative binding free energy” value is on record?
A: -0.21 kcal/mol

Q: For GTGTTCACGTGGCATG, which “relative binding free energy” value is on record?
A: 0.16 kcal/mol

Q: TTCATCACGTGTTTTC was tested. Which “relative binding free energy” value did it give?
A: 0.2 kcal/mol

Q: GAGGGCACGTGATGTT was tested. Which “relative binding free energy” value did it give?
A: 0.11 kcal/mol

Q: How did the “relative binding free energy” value turn out when TCCGTCACGTGTGGAT was run?
A: 0.21 kcal/mol

Q: For TTATACACGTGCAGTT, which “relative binding free energy” value is on record?
A: -0.02 kcal/mol

Q: For TAATGCACGTGTAAAG, which “relative binding free energy” value is on record?
A: 0.05 kcal/mol

Q: For AATTACACGTGGTGTC, which “relative binding free energy” value is on record?
A: 0.08 kcal/mol

Q: With GATGGCACGTGAGGAA as the sequence, how does the “relative binding free energy” value read?
A: 0.23 kcal/mol

Q: How did the “relative binding free energy” value turn out when GTGGTCACGTGTTCTT was run?
A: 0.2 kcal/mol

Q: With TGAAGCACGTGTGAGG as the sequence, how does the “relative binding free energy” value read?
A: -0.01 kcal/mol

Q: With AGATACACGTGTGCTG as the sequence, how does the “relative binding free energy” value read?
A: 0.09 kcal/mol

Q: For AAGGTCACGTGATGGT, which “relative binding free energy” value is on record?
A: 0.18 kcal/mol

Q: With TGTTTCACGTGCGCAG as the sequence, how does the “relative binding free energy” value read?
A: 0.15 kcal/mol

Q: With CATTGCACGTGTGGGT as the sequence, how does the “relative binding free energy” value read?
A: -0.02 kcal/mol

Q: For ATGGACACGTGAGAGT, which “relative binding free energy” value is on record?
A: 0.13 kcal/mol

Q: CTTGTCACGTGCGTGT was tested. Which “relative binding free energy” value did it give?
A: -0.09 kcal/mol

Q: With AGAATCACGTGGGGAT as the sequence, how does the “relative binding free energy” value read?
A: 0.06 kcal/mol

Q: For GGTAGCACGTGGTAAG, which “relative binding free energy” value is on record?
A: -0.18 kcal/mol

Q: Which “relative binding free energy” value does the source give for AGTGACACGTGATTAG here?
A: 0.09 kcal/mol

Q: Which “relative binding free energy” value does the source give for GGCGACACGTGATTTG here?
A: 0.22 kcal/mol

Q: How did the “relative binding free energy” value turn out when AGCAGCACGTGGTTTG was run?
A: -0.04 kcal/mol

Q: How did the “relative binding free energy” value turn out when GAGCACACGTGGGGTG was run?
A: -0.13 kcal/mol

Q: For GTTTCCACGTGGTAGG, which “relative binding free energy” value is on record?
A: 0.05 kcal/mol

Q: With GTGGCCACGTGAAGGA as the sequence, how does the “relative binding free energy” value read?
A: 0.38 kcal/mol

Q: With GGTACCACGTGTAGTG as the sequence, how does the “relative binding free energy” value read?
A: 0.06 kcal/mol

— the BET-seq Pho4 binding data (Le et al. 2018)
